Reference: PubChem BioAssay AID2147 (National Center for Advancing Translational Sciences (NCATS), 2009)
Values joined by “and” are separate entries in the source; they are usually repeats but may differ in a detail not shown here. Identical values can stand only once. Out of some 230,000 compounds screened, about 3,600 (1.6%) were called active. Inconclusive results, whose numbers are uncertain, are shown with a selection of clear calls. The call rests on the fitted dose curve; in most records, active means well fitted inhibition curve with a large enough effect (not every such curve was filed as active); inconclusive means small, poorly fitted or top-dose-only effect, or another doubt; inactive means no such curve, though single readings can be large or run the other way. Potencies beside an inconclusive call are fits to weak or partial responses and may not hold up.

target: Lysine-specific demethylase 4E (Homo sapiens) (UniProt B2RXH2); assay: qHTS Assay for Inhibitors of Human Jumonji Domain Containing 2E (JMJD2E); conditions: JMJD2E catalytic domain, FDH-coupled NADH fluorescence (FDH is formaldehyde dehydrogenase); series mostly up to 57.1 µM; activity change, negative = inhibition: at the top concentration
Chain of UniProt B2RXH2 (B2RXH2 whole entry, looked up, the tested form may be a part): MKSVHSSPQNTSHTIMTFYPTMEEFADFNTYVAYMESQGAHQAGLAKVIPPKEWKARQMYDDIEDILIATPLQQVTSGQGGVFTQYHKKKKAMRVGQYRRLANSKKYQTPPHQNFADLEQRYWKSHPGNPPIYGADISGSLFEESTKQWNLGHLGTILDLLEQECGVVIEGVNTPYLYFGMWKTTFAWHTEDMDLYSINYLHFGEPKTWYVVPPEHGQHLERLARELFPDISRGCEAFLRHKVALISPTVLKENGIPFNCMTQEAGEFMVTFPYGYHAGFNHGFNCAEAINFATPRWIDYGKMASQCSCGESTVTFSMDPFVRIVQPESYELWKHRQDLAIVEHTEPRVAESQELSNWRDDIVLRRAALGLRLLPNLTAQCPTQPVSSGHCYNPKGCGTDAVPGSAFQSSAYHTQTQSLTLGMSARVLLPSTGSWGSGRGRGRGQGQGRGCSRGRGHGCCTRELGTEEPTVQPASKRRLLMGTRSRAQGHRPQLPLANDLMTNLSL
Further: nearly all actives have a fitted effect of over 50% in size.
Potency means the concentration at half of the fitted maximal effect; tags describe the fitted curve by direction and shape.
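Wherever activity change, negative = inhibition is given: 0% = wells with enzyme and -100% = buffer wells without enzyme.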

Row | SMILES | Potency | activity change, negative = inhibition
1 | Cc1cccc(S(=O)(=O)Nc2nc3ccccc3nc2NCc2ccco2)c1 | inconclusive: 25.1 µM [inhibitor, partial curve] | –
2 | CCC(C)C(NC(=O)c1ccccc1NC(=O)c1ccc(OC)cc1)C(=O)NCc1ccco1 (stereo unspecified) | inconclusive: 39.8 µM [inhibitor, single point] | –
3 | COC(=O)c1ccc(/C=C(\C#N)c2ccccn2)cc1 | inconclusive: 39.8 µM [inhibitor, single point] | –
4 | Fc1ccc(NC(=S)Nc2cccnc2)cc1 | inconclusive: 31.6 µM [inhibitor, partial curve] | –
5 | Cc1[nH]c2ccccc2c1/C=N/NC(=O)c1cccc(S(=O)(=O)Nc2cccc(C(F)(F)F)c2)c1 | inconclusive: 20 µM [inhibitor, partial curve] | –
6 | COCCN(CCOC)c1cc(C)c(C#N)c2nc3ccccc3n12 | inconclusive: 25.1 µM [inhibitor, partial curve] | –
7 | CC1(C)Cc2c(C#N)c(N3CCN(C(=O)c4ccccc4)CC3)nc(Cc3ccccc3)c2CO1 | inconclusive: 35.5 µM [inhibitor, partial curve] | –
8 | CC(=O)Nc1cc2nn(-c3ccccc3)nc2cc1Cl | inconclusive: 31.6 µM [inhibitor, partial curve] | –
9 | N#Cc1c(N2CCCC2)nc(N)c2c(N)nc(N3CCCC3)cc12 | inconclusive: 14.1 µM [inhibitor, partial curve] | –
10 | COCC(C)NC(=O)c1ccc(N(C)C)cc1 (stereo unspecified) | – | inactive: -2.74%
11 | Cc1c(C(=O)N2CCC(C)CC2)sc2ncnc(N(C)c3ccccc3)c12 | inconclusive: 35.5 µM [inhibitor, single point] | –
12 | Cc1ccc(-n2ncc3c(NCC4CCCO4)ncnc32)c(C)c1 (stereo unspecified) | – | inactive: -11.3%
13 | NS(=O)(=O)c1ccc(Nc2nc(-c3ccc(F)cc3)cs2)cc1 | – | inactive: -8.76%
14 | COc1ccc(-c2cc3cc(OC)c(OC)cc3c(C)n2)cc1 | inconclusive: 28.2 µM [inhibitor, partial curve] | –
15 | CCOC(=O)c1cc2sc(C)cc2n1CC(=O)NCc1ccc(F)cc1 | inconclusive: 39.8 µM [inhibitor, single point] | –
16 | COc1ccccc1C1C=C(c2ccc(Cl)cc2)Nc2nc(N3C(=O)CCC3=O)nn21 (stereo unspecified) | inconclusive: 31.6 µM [inhibitor, partial curve] | –
17 | Cc1cccc2nc(-c3cccc(NC(=O)Cc4ccccc4)c3)cn12 | inconclusive: 25.1 µM [inhibitor, partial curve] | –
18 | [O-]/C(=C(\C(=S)Nc1cccc2ccccc12)[n+]1ccccc1)c1ccc(OC(F)F)cc1 | inconclusive: 25.1 µM [inhibitor, partial curve] | –
19 | CC(C)c1nc(NCCO)c2nnn(Cc3ccccc3)c2n1 | – | inactive: -6.31%
20 | COC(=O)C1=CNC=C(C(=O)OC)C1c1ccc(Cl)cc1 | inconclusive: 31.6 µM [inhibitor, partial curve] | –
21 | Cc1cccc(-c2nnc(-c3cccc(NC(=O)Cc4cccs4)c3)o2)c1 | inconclusive: 39.8 µM [inhibitor, single point] | –

Row | SMILES | Potency | activity change, negative = inhibition
22 | COC(=O)COc1ccc(Cl)cc1C1Nc2ccccc2C(=O)N1c1ccc(OC)cc1 (stereo unspecified) | inconclusive: 28.2 µM [inhibitor, partial curve] | –
23 | CCN(c1ccccc1)S(=O)(=O)c1ccc(Cl)c(C(=O)NCC2CCCO2)c1 (stereo unspecified) | – | inactive: 8.92%
24 | COc1ccc(/C=C/C(=O)OCC(=O)c2c(C)[nH]c3ccccc23)cc1OC | inconclusive: 11.2 µM [inhibitor, partial curve] | –
25 | Cc1cccc(N(C(=O)c2snc(C(N)=O)c2N)C(C(=O)NCC2CCCO2)c2cccs2)c1 (stereo unspecified) | inconclusive: 25.1 µM [inhibitor, partial curve] | –
26 | CC(C)N(CC#CCC1(O)c2ccccc2-c2ccccc21)CCO | inconclusive: 35.5 µM [inhibitor, single point] | –
27 | CCn1c(C)cc2c(c1=O)C(c1ccccc1Br)C(C#N)=C(N)O2 (stereo unspecified) | inconclusive: 28.2 µM [inhibitor, single point] | –
28 | CC1CCC/C(=C\Nc2ccc(O)cc2)C1=O (stereo unspecified) | inconclusive: 11.2 µM [inhibitor, partial curve] | –
29 | O=C1CCCC2=C1C(c1ccco1)Nc1ccc3ccccc3c12 (stereo unspecified) | inconclusive: 11.2 µM [inhibitor, partial curve] | –
30 | COc1cccc(C2C3=C(CC(C)(C)CC3=O)Nc3cc(OC)c(OC)cc32)c1 (stereo unspecified) | inconclusive: 31.6 µM [inhibitor, partial curve] | –
31 | CC(=O)N/C(=C/c1ccc(OS(=O)(=O)c2ccc(C)cc2)cc1)C(=O)NCCCO | – | inactive: 1.24%
32 | Cc1ccc(C)c(S(=O)(=O)c2c(N)n(/N=C/c3ccco3)c3nc4ccccc4nc23)c1 | inconclusive: 22.4 µM [inhibitor, partial curve] | –
33 | O=C(O)c1ccccc1OP(=O)(O)O | inconclusive: 14.1 µM [inhibitor, partial curve] and inconclusive: 28.2 µM [inhibitor, partial curve] | –
34 | O=C(NC1CCCCC1)C(c1ccncc1)N(Cc1ccccc1)C(=O)c1ccc(-c2ccccc2)[nH]1 (stereo unspecified) | inconclusive: 39.8 µM [inhibitor, single point] | –
35 | COCCNc1c(-c2ccc(OC)c(OC)c2)nc2ccc(Cl)cn12 | inconclusive: 39.8 µM [inhibitor, single point] | –
36 | Nc1nc(NCc2ccco2)nc(N2CCOCC2)c1[N+](=O)[O-] | – | inactive: -6.49%
37 | CCS(=O)(=O)N1CCN(c2ccccn2)CC1 | inconclusive: 39.8 µM [inhibitor, single point] | –
38 | Cc1cccc(N2CCN(C(=O)Cn3sc4nc(C)cc(C)c4c3=O)CC2C)c1 (stereo unspecified) | inconclusive: 31.6 µM [inhibitor, single point] | –
39 | C/C(=N\Nc1ccc(S(=O)(=O)N2CCOCC2)cc1[N+](=O)[O-])C(C)C | – | inactive: 1.3%
40 | Cc1cc(=O)oc2c(CN3CCN(C)CC3)c(O)c(Cl)cc12 | inconclusive: 3.16 µM [inhibitor, full curve] | –
41 | CCCc1cc(=O)oc2cc(C)cc(OCc3nn[nH]n3)c12 | inconclusive: 31.6 µM [inhibitor, partial curve] | –
